Laboratory results: US8273715B2, “Methods of treating fragile X syndrome” (Seaside Therapeutics, Inc., priority 2006, dated 2012)

What was measured:
Fmr1 KO mice [1] = assay: Open field testing, baclofen; assay type: in vivo, mouse; conditions: 30 min test
Method: Mice were injected (i.p.) with a dose of R(+)- or S(−)-baclofen one hour before testing. Each mouse was injected with a dose of R or S before testing. The order of treatment (e.g. R followed by S, or S followed by R) was balanced, and the dose was randomly assigned for each drug. There were at least 3 days between tests. Mice used for this experiment had been previously tested approximately one week earlier on the marble-burying test following treatment with R(+)- and S(−)-baclofen.
Mice were placed into the center of a clear Plexiglas (40 cm×40 cm×30 cm) open-field arena and allowed to explore for 30 minutes. Bright, overhead lighting provided approximately 800 lux of illumination inside the arenas. White noise was present at approximately 55 dB inside the arenas. Total distance traveled data during the 30 minute test were collected in two-min intervals by a computer-operated Digiscan optical animal activity system (Accuscan Electronics), but the data for the full 30-min test were analyzed.
The N for the WT littermate controls were: R(+)-baclofen vehicle-treatment N=14; S(−)-baclofen vehicle-treatment N=16.
Open-field activity data were analyzed using a two-step process. First, the data from vehicle-treated WT and Fmr1 KO littermates were analyzed using a one-way ANOVA. […] Statistical analyses were analyzed using SPSS 11.0

Fmr1 KO mice [2] = assay: Marble burying assay, baclofen; conditions: for dose-related alteration in marble burying behavior: i.p. one hour before testing, all doses
Fmr1 KO mice [3] = assay: Audiogenic seizure assay, baclofen; conditions: 3 mg/kg i.p.; for percentage of Fmr1 KO mice that displayed audiogenic seizures: vehicle about 70%
[4] = system: subjects with fragile X syndrome; assay: Example 5: racemic baclofen in five male subjects with fragile X syndrome, clinician rating; assay type: in vivo, human; conditions: of 5 male subjects; excessive sleepiness, increased irritability, screaming and swearing
Method: These subjects had serious behavioral problems that were incompletely controlled with typical psychoactive medications. […] Doses were titrated from about 2.5 mg BID to a maximum of about 20 mg TID, with a maximum duration of about 4 months. […] Subjects were considered “Improved” if the clinician rating was either “much better” or “better”; considered “Not Improved” if the rating was “slightly worse”, “no change” or “slightly better”; and considered “Worsened” if rated “worse” or “much worse”. […] Other areas of improvement included increased class participation and decreased hyperactivity.

76 molecular targets = conditions: 10 μM racemic baclofen, in duplicate; cited from earlier work
Fmr1 KO mice [5] = assay: Marble burying assay, dicyclomine; assay type: in vivo, mouse; conditions: about 60 minutes before the test
Method: Fmr1 KO mice were bred on a C57BL/6J genetic background. Only male Fmr1 KO (Fmr1−/y) mice were tested in this study. A standard mouse cage was filled with 10 cm of corn-cob bedding. Small (1.5-2 cm) black marbles were placed equidistant on top of the bedding. A mouse was placed in this cage and allowed to explore and bury the marbles. After about 20 minutes the mouse was removed and the number of marbles buried (a marble was considered ‘buried’ if more than about 50% of the marble under the bedding) was recorded. Mice were treated with dicyclomine about 60 minutes before the test.

Fmr1 knockout mice = assay: Audiogenic seizure assay, dicyclomine; assay type: in vivo, mouse; conditions: 40 mg/kg i.p. about 60 minutes prior to the assay
Method: FIG. 7 depicts audiogenic seizures in young Fmr1 KO mice with or without dicyclomine (diccyc.) treatment.
The methods employed are described above. Briefly, Fmr1 knockout mice were treated i.p. with either vehicle or dicyclomine about 60 minutes prior to the assay. Mice were exposed to a high intensity sound and then observed for occurrence of seizures. The primary endpoint was frequency of status epilepticus, a sustained tonic seizure most often resulting in respiratory arrest and death.

[6] = 50 mg/kg i.p. 1 hr before testing

## NC[C@H](CC(=O)O)c1ccc(Cl)cc1 [R-baclofen]
Fmr1 KO mice [1]; 6 mg/kg i.p. 1 hr before testing
  open-field activity (total distance traveled) versus vehicle-treated Fmr1 KO mice: significantly less active
Fmr1 KO mice [1]; 6 mg/kg i.p. 1 hr before testing, listed as R(+)-baclofen
  open-field activity (total distance traveled) versus vehicle-treated Fmr1 KO mice: less active
Fmr1 KO mice [1]; [6]
  open-field activity (total distance traveled) versus vehicle-treated Fmr1 KO mice: less active
Fmr1 KO mice [2]; 10 mg/kg i.p. one hour before testing
  marbles buried versus mice that received 0, 0.3, 1, 3 or 6 mg/kg: significantly less
Fmr1 KO mice [2]
  dose-related alteration in marble burying behavior: significant (p<0.005) dose-related alteration
Fmr1 KO mice [3]
  induction of audiogenic seizures: significantly prevented induction of audiogenic seizures
Fmr1 KO mice [3]; listed as R(+)-baclofen
  percentage of Fmr1 KO mice that displayed audiogenic seizures: about 33%
Fmr1 KO mice [3]; listed as R(+)baclofen
  percentage of Fmr1 KO mice that displayed audiogenic seizures: 33%

## NCC(CC(=O)O)c1ccc(Cl)cc1 (racemic) [baclofen, β-(Aminomethyl)-4-chlorobenzenepropanoic acid]
[4]
  number of subjects that worsened: One subject
76 molecular targets
  binding to the other 75 molecular targets: less than 50%
Fmr1 KO mice [2]; 6 mg/kg, 12 mg/kg, fragile X knockout mice
  marble burying behavior: reduced marble burying behavior in a dose dependent manner

## CCN(CC)CCOC(=O)C1(C2CCCCC2)CCCCC1 [dicyclomine]
Fmr1 KO mice [5]
  marble burying behavior: reduced marble burying behavior in a dose dependent manner
Fmr1 knockout mice
  induction of audiogenic seizures: significantly prevented induction of audiogenic seizures

## NC[C@@H](CC(=O)O)c1ccc(Cl)cc1 [S-baclofen]
Fmr1 KO mice [1]; [6]
  open-field activity (total distance traveled) versus vehicle-treated Fmr1 KO mice: significantly less active
Fmr1 KO mice [2]; 1.0 mg/kg i.p. one hour before testing
  marbles buried versus 0.0 mg/kg treated mice: significantly (p<0.05) more
Fmr1 KO mice [2]; 50 mg/kg i.p. one hour before testing
  marbles buried versus mice receiving 0, 0.3, 1, 6 or 30 mg/kg: significantly less
Fmr1 KO mice [2]
  dose-related alteration in marble burying behavior: significant (p<0.005) dose-related alteration
Fmr1 KO mice [3]
  induction of audiogenic seizures: no more effective than vehicle
